For 1 substance, binding results are on record in article PMC10320511.

By UniProt entry, the sequences of proteins in these tests, tags left out.
UniProt Q01371: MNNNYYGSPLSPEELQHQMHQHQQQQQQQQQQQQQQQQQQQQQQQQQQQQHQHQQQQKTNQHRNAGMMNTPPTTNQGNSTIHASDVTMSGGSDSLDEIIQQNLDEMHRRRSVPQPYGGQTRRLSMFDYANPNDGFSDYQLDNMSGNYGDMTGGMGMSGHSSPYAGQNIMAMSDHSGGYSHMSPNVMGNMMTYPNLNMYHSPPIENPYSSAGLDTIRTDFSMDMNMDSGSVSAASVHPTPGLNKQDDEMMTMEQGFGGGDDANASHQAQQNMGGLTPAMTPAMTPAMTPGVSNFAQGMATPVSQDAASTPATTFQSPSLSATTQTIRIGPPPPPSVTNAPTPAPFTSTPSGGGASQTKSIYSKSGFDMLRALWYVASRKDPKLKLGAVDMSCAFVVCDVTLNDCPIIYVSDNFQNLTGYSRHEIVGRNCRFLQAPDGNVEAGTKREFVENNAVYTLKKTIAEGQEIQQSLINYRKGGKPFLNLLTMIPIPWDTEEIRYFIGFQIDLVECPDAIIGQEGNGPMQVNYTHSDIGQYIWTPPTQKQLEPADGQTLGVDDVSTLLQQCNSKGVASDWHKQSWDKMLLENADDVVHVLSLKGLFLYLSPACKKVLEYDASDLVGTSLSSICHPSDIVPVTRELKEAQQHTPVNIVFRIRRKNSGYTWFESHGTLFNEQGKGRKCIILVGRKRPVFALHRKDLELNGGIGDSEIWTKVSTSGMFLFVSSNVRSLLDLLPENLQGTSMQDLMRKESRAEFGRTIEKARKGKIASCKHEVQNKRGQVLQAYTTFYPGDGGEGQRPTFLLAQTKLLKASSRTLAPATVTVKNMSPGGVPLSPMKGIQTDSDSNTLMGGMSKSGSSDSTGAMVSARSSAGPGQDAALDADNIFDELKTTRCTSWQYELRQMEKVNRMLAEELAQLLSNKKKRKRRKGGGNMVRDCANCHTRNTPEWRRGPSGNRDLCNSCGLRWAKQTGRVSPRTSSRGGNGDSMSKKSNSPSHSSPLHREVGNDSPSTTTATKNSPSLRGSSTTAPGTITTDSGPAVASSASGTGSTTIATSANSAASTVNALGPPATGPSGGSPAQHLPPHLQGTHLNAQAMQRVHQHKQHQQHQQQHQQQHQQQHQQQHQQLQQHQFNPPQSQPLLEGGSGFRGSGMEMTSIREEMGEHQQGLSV

No constants are given. Whether binding was seen depends on the method and setting. Binding seen in cells or lysates may run through a third protein. Some results given as binding are weak or reduced against the parent protein; the word gives no strength. Where a sequence is shown, tags or fusion partners need not be part of it.

The target in assay [1] is T1, FRQ D874A, D875A, E876A, E877A, E879A, E880A, E882A, E883A, D884A, V5H6-tagged (Neurospora crassa) (UniProt P19970).
T1 sequence: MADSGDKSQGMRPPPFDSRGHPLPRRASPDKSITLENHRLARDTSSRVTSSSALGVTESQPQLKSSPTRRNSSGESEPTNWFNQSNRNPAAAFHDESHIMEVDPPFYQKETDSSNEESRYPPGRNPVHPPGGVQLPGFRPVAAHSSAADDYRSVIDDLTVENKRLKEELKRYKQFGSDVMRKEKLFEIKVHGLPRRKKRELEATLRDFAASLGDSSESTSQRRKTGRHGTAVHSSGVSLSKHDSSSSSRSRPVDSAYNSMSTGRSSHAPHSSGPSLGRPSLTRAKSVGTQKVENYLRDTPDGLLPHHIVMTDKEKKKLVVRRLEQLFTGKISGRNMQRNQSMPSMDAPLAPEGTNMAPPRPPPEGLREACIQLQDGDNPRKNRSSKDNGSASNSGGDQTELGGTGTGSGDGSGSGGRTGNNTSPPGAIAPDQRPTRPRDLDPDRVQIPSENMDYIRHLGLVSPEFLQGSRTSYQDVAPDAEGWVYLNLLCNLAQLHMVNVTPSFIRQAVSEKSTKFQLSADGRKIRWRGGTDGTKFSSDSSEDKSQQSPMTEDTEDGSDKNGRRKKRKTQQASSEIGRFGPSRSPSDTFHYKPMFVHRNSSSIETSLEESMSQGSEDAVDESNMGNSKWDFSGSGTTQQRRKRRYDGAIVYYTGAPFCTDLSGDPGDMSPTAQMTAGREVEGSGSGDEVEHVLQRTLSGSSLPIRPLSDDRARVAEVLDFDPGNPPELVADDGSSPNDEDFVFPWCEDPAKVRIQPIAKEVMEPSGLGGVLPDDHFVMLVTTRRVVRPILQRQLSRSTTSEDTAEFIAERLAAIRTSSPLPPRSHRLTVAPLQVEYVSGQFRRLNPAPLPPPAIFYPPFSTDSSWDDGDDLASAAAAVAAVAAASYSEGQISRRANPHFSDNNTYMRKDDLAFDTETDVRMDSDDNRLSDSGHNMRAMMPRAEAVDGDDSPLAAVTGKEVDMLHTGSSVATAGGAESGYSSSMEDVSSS
Nature of the assay: co-IP; V5H6-tagged FRQ (wild type or mutant) pulled down with V5 agarose from Neurospora lysate (cultures in the light, 25 °C); 50 mM Hepes pH 7.4, 137 mM NaCl, 10% glycerol, 0.4% NP-40; 4 °C, 2 h; Western blot with FRQ, FRH, WC-1 and WC-2 antibodies.

For assay [2], the target named is T2, FRQ Δ691–732, V5H6-tagged (Neurospora crassa) (UniProt P19970).
T2 sequence: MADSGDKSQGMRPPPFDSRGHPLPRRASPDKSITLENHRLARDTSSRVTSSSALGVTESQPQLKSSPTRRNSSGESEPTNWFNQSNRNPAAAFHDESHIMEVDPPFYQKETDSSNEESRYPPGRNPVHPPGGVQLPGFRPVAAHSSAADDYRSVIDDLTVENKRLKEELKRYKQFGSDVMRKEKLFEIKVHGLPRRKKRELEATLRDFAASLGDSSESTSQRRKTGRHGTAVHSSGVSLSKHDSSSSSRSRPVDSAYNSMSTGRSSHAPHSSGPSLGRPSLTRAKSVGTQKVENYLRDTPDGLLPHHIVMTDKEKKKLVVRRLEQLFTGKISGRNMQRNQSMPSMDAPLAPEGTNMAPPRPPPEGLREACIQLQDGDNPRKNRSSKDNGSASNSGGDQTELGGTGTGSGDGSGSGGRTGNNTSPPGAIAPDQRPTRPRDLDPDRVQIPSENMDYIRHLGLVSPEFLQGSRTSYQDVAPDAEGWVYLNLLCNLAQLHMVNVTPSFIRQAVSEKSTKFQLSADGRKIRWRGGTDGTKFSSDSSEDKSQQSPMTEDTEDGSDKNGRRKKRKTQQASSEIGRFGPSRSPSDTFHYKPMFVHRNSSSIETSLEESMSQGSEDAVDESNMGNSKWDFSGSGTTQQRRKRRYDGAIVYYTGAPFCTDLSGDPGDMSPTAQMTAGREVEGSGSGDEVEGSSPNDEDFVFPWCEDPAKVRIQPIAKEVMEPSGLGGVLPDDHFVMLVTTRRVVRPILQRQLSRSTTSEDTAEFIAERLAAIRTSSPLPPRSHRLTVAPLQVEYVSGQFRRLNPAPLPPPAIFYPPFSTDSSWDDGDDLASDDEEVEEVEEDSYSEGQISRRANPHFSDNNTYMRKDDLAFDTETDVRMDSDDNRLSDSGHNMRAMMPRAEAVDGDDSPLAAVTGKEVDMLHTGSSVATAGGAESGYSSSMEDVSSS
Described as above.

In the case of “White Collar-1 (WC-1) (from UniProt Q01371 1-1167)”, the binding result in assay [1] and in assay [2] was “binds weakly” in each case.
